{
  "source": "paper PMC4700190",
  "biological_target": "CynD R67C (Bacillus pumilus)",
  "assay": "SEC; Superdex 200 10/300 GL, 0.1 M MOPS pH 7.7, 0.5 ml/min; His-tag purified protein; column calibrated with a marker kit, and with wild-type B. pumilus CynD (18-mer) and P. stutzeri CynD (14-mer)",
  "note": "Some values that stand alone complete this part of the results.",
  "data": [
    {"substance": "CynD R67C (enzyme)", "values": [
      {"measurement": "stoichiometry N", "setting": "14-mer elution peak", "result": 14, "unit": "subunits"},
      {"measurement": "stoichiometry N", "setting": "dimer elution peak", "result": 2, "unit": "subunits"},
      {"measurement": "stoichiometry N", "setting": "hexamer elution peak", "result": 6, "unit": "subunits"}
    ]}
  ]
}
